# “Also recorded” adds a separate entry of the source. Where two headings read alike, the source gives them in different places.
# B1: anti-CD45-ADC: anti-CD45 Ab5 conjugated to DGN-549 via cysteines at amino acid 265 in the Fc region, protease-cleavable linker (conjugate)
# heavy: EVQLVESGGGLVQPGGSLRLSCAASGFTFEAYSMNWVRQAPGKGLEWVSYISLSGATIHYADSVKGRFTISRDNAKNSLYLQMNSLRAEDTAVYYCARGGQYYYTSSDYGEVAFDIWGQGTMVTVSSASTKGPSVFPLAPSSKSTSGGTAALGCLVKDYFPEPVTVSWNSGALTSGVHTFPAVLQSSGLYSLSSVVTVPSSSLGTQTYICNVNHKPSNTKVDKKV[not shown - human IgG1 Fc with L234A L235A D265C H435A (EU numbers)]
# light: DIVMTQSPLSLPVTPGEPASISCRSSQSLVSSGYNYLDWYLQKPGQSPQLLIYFGSSRASGVPDRFSGSGSGTDFTLKISRVEAEDVGVYYCMQRRRTPWSFGGGTKVEIKRTVAAPSVFIFPPSDEQLKSGTASVVCLLNNFYPREAKVQWKVDNALQSGNSQESVTEQDSKDSTYSLSSTLTLSKADYEKHKVYACEVTHQGLSSPVTKSFNRGEC
# Experiments:
# HSCs and immune cells [1] = test: HSC and immune cell depletion in cynomolgus monkeys; assay type: in vivo
# Procedure: (§1) Cynomolgus monkeys were treated with a single dose of anti-CD45-ADC (Ab5-DGN549) at various doses ranging from 0.05 to 0.6 mg/kg. Control groups received either PBS or isotype-ADC. Samples were collected at days 4, 7, 14, and 28 for flow cytometry analysis (FIG. 6A).
# An additional experiment using Cynomolgus monkeys was performed, with an identical setup as described above (FIG. 8A). The anti-CD45-ADC was administered as a single dose at concentrations ranging from 0.05 to 0.6 mg/kg. Busulfan (administered at 6 mg/kg, QDx4) was utilized as a control.
# [2] = system: relapsed/refractory acute myeloid leukemia (AML) patient-derived xenograft; test: PDX model of relapsed/refractory AML, survival; assay type: in vivo, mice; settings: R/R AML PDX
# Procedure: Anti-malignancy activity of an anti-CD45-ADC was assessed using a patient-derived xenograft (PDX) model of relapsed/refractory acute myeloid leukemia (AML). A single dose of anti-CD45-ADC (Ab5-DGN549) was administered to a group of mice when tumor levels reached ˜10% in peripheral blood, around day 24. Control groups received either PBS, isotype-ADC, CD45 mAb, or ARA-C at 30 mg/kg QDx5. Long-term, disease-free survival was monitored.
# The anti-malignancy activity was assessed in a patient-derived xenograft (PDX) model of relapsed/refractory acute myeloid leukemia (AML).
# HSCs and immune cells [3] = test: HSC depletion and immune cell function in rhesus macaques; assay type: in vivo
# Source text: Control groups received PBS.
# [4] = system: erythroid-specific BCL11A enhancer-edited CD34+ cells; test: Conditioning and engraftment of BCL11A enhancer-edited CD34+ cells in rhesus macaques; assay type: in vivo
# Procedure: Rhesus macaques were treated with a single dose of anti-CD45-ADC (Ab5-DGN549) at either 0.2 or 0.3 mg/kg followed by engraftment of erythroid-specific BCL11A enhancer-edited CD34+ cells.
# For transplant studies, rhesus macaque CD34+ HSPCs were electroporated with 3×NLS SpCas9 protein and two RNAs targeting the +55 and +58 BCL11A erythroid enhancers.
# A similar experiment was performed in Rhesus macaques. Rhesus macaques were treated with either 0.2 or 0.3 mg/kg of an anti-CD45-ADC as a single IV bolus. At day 10, the macaques underwent an HSC transplant with autologous gene-edited BCL11a enhancer −/− cells, and were monitored over time (FIG. 15A). A cohort of macaques were treated with Busulfan (5.5-6 mg/kg QDx4) as a control.
# Two additional rhesus macaques were conditioned with 0.2 mg/kg anti-CD45 ADC and infused with autologous HSPCs transduced with a barcoded lentiviral vector.
# [5] = system: recurrent angioimmunoblastic T-cell lymphoma patient-derived xenograft; test: PDX model of recurrent angioimmunoblastic T-cell lymphoma, survival; assay type: in vivo, mice; settings: single dose 3 mg/kg at ~10% tumor in peripheral blood, around day 27
# Procedure: Anti-CD45-ADC was further tested in a PDX model of recurrent angioimmunoblastic T-cell lymphoma. A single dose of anti-CD45-ADC (Ab5-DGN549) was administered to a group of mice when tumor levels reached ˜10% in peripheral blood, around day 27. Control groups received either PBS, isotype-ADC, CD45 mAb, ARA-C at 30 mg/kg QDx5, or Dexamethasone at 5 mg/kg Q3Dx10. Long-term disease survival was monitored.
# GFP+ gene modified HSCs = test: Immunogenic GFP+ model, chimerism in blood after conditioning; assay type: in vivo, macaques; settings: day 111; ~40% theoretical maximum chimerism
# Procedure: Using an immunogenic GFP+ model, chimerism in blood was assessed following conditioning with anti-CD45-ADC. […] Engraftment was performed using gene modified HSCs that contained tracer DNA in order to study the lineage of the cells.
# [6] = system: Human HSCs (CD34 + CD90+); settings: read-out: Cytotoxicity (IC90), in vitro
# [7] = cynomolgus
# Procedure: as §1
# REH Leukemia Cell Line = settings: read-out: Cytotoxicity (IC90), in vitro
# [8] = rhesus; single IV infusion 0.1, 0.3 and 0.6 mg/kg, any dose
# Procedure: Rhesus macaques were treated with a single dose of anti-CD45-ADC at 0.1, 0.3, or 0.6 mg/kg. Control groups received PBS. Samples were collected at days 4, 7, 21, and 28 for flow cytometry analysis (FIG. 9A). […] Clinical pathology was further assessed in rhesus macaques treated with a single IV infusion of anti-CD45-ADC at 0.1, 0.3, and 0.6 mg/kg.
# [9] = system: autologous HSPCs transduced with a barcoded lentiviral vector; test: Clonality after infusion of barcoded lentiviral vector transduced autologous HSPCs; assay type: in vivo, rhesus macaques; settings: rhesus; 0.2 mg/kg; four to eight months after infusion
# Procedure: At 0.2 mg/kg anti-CD45 ADC (n=1), editing reached 62% of target alleles among short-lived granulocytes, reflecting the HSC compartment, with a follow up of 72 weeks to date. […] Editing in other lineages including monocytes, NK cells, B cells, erythroid precursors and CD34+ HPSCs ranged from 79-93% for the animals given 0.3 mg/kg anti-CD45 ADC and 34-63% for the animal given 0.2 mg/kg anti-CD45 ADC. At 16-69 week post-transplantation, T cell editing was 14-21% following anti-CD45 ADC conditioning (8-31% for busulfan treated animals at 25-34 weeks). Two additional rhesus macaques were conditioned with 0.2 mg/kg anti-CD45 ADC and infused with autologous HSPCs transduced with a barcoded lentiviral vector.
# [10] = cynomolgus, single dose 0.05 to 0.6 mg/kg
molecule,measurement,setting,value
B1,"depletion of bone marrow HSCs (in words, FIG. 14A)",HSCs and immune cells [1]; cynomolgus macaques,robust depletion of bone marrow HSCs
same,ability of T cells to divide ex vivo (in words),"HSCs and immune cells [1]; cynomolgus, day 3",reduce the ability for T cells to divide ex vivo
same,reduction of HSCs compared to Busulfan (in words),"HSCs and immune cells [1]; cynomolgus, doses >0.1 mg/kg, Busulfan 6 mg/kg QDx4",comparable reduction of HSCs as compared to the myeloablative Busulfan
same,depletion of immune cell function in peripheral blood,"HSCs and immune cells [1]; cynomolgus, doses >0.2 mg/kg",> 90%
same,peripheral T cells recovery (in words),"HSCs and immune cells [1]; cynomolgus, lowest dose 0.05 mg/kg",return to pre-dose levels
same,peripheral B cells after administration (in words),HSCs and immune cells [1]; [10],reduction of peripheral B cells
same,peripheral T cells after administration (in words),HSCs and immune cells [1]; [10],initially reduced
same,HSCs in bone marrow relative to baseline (in words),"HSCs and immune cells [1]; cynomolgus, single dose 0.05 to 0.6 mg/kg, all doses, days 6 or 7 post-dose",depleted HSCs in bone marrow
same,peripheral immune depletion (in words),"HSCs and immune cells [1]; cynomolgus, single dose >0.15 mg/kg, 7 days post administration, n=3-6 animals/dose group",broad peripheral immune depletion
same,median survival,"[2]; single dose 3 mg/kg at ~10% tumor in peripheral blood, around day 24",> 332 days
same,median survival (long-term disease-free survival),"[2]; single dose, n=5-8 mice/group",> 330 days
same,depletion of immune cell function in peripheral blood,HSCs and immune cells [3]; doses >0.3 mg/kg,> 90%
same,depletion of HSCs,"HSCs and immune cells [3]; single dose >0.3 mg/kg, 7 days post-administration",greater than 95%
same,"editing in other lineages (monocytes, NK cells, B cells, erythroid precursors, CD34+ HPSCs)",[4]; 0.2 mg/kg,34-63%
same,editing of target alleles among granulocytes,"[4]; 0.2 mg/kg (n=1), follow up of 72 weeks",62%
same,engraftment of the edited cells,"[4]; 0.2 mg/kg single dose, week 50",~60%
same,"editing in other lineages (monocytes, NK cells, B cells, erythroid precursors, CD34+ HPSCs)",[4]; 0.3 mg/kg,79-93%
same,engraftment level compared to myeloablative Busulfan (in words),[4]; 0.3 mg/kg,comparable to that of the myeloablative Busulfan; also recorded: comparable results as to the myeloablative Busulfan
same,granulocyte editing,"[4]; 0.3 mg/kg (n=2), stable through 24 and 32 weeks",82-84%
same,F-cell levels,"[4]; 0.3 mg/kg animals, week 10-13",80-93%
same,γ-globin expression,"[4]; 0.3 mg/kg animals, week 10-13",67-82%
same,engraftment of the edited cells,"[4]; 0.3 mg/kg single dose, by week 10",~85%
same,induction of F-cells (in words),[4]; 0.2 and 0.3 mg/kg,robust induction of levels of F-cells
same,engraftment of edited cells (in words),"[4]; 0.2 or 0.3 mg/kg single IV bolus, transplant at day 10",enabled engraftment of edited cells at all doses tested
same,fetal hemoglobin (HbF) induction (in words),"[4]; 0.2 or 0.3 mg/kg, HbF-positive cells / F-cells and γ-globin",robust hemoglobin F (HbF) induction; also recorded: robust fetal hemoglobin induction
same,T cell editing,[4]; 16-69 week post-transplantation,14-21%
same,edited cell engraftment,[4]; single dose of 0.2 or 0.3 mg/kg,60-80%
same,median survival,[5],103 days
same,lymphoid chimerism,GFP+ gene modified HSCs,~24%
same,myeloid chimerism,GFP+ gene modified HSCs,~35%
same,IC90,[6],6.6 ± 5.9 pM
same,t1/2,[7]; 0.2 mg/kg,< 1.2 h
same,in vivo clearance (in words),"[7]; infusion or bolus, various doses",rapid in vivo clearance
same,IC90,"Human PBMCs; read-out: Cytotoxicity (IC90), in vitro",5.9 ± 1.2 pM
same,IC90,"Human PBMCs; read-out: Cytotoxicity (IC90), in vitro, listed as CD45-ADC",5.8 ± 1.2 pM
same,IC90,REH Leukemia Cell Line,8.5 ± 4.3 pM
same,changes in ALP,[8],no changes
same,changes in ALT,[8],no changes
same,changes in AST,[8],no changes
same,changes in TBIL,[8],no changes
same,clonality of engraftment (in words),[9],highly polyclonal
